Where “and” joins values, the source holds several entries; their conditions need not be identical. Equal values may be shown once.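 Briefly, cells in 96-well plates were exposed to five compound concentrations for 48 h, and endpoints were estimated by linear interpolation. GI50 marks 50% less growth. TGI: total growth inhibition.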 Where only a bound is given, the exact number is not on record here.

For the assay, the system named is NCI-H322M lung. Description: DTP human tumour cell line panel, 48 h.
The term TGI denotes the concentration giving total growth inhibition. A low value points to greater sensitivity of the cells. Compound `Nc1nc(N)c2nc(CNc3ccc(C(=O)NC(CCCCNC(=O)c4ccccc4C(=O)O)C(=O)O)cc3)cnc2n1` (stereo not given) displayed a total growth inhibition concentration (TGI) greater than 100 µM. The same measure, in the same setting: the same measure for `CC1=C(C(=O)OC(C)C)C(c2ccccc2C(F)(F)F)C(C(=O)OC(CO[N+](=O)[O-])CO[N+](=O)[O-])=C(C)N1` (stereo not given): greater than 100 µM.

As for `Nc1n[nH]c(CCc2nc(N)n[nH]2)n1`, the concentration for total growth inhibition (TGI) was greater than 100 µM. On the same count and under the same terms, the same measure for `CC1=C(/C=C/C(C)=C/C=C/C(C)=C/CO)C(C)(C)CCC1`: 51.5 µM. Regarding `COc1cc2oc(=O)ccc2cc1CC=C(C)C`, the TGI is greater than 100 µM. `O=C1C2Nc3ccccc3SC2C(=O)N1c1ccccc1C(F)(F)F` (stereo not given) returned a TGI greater than 100 µM. In turn, `Cc1cccc(Nc2cnc(N)nc2N)c1` gave a concentration for total growth inhibition (TGI) greater than 100 µM.

Broadly, the GI50 is the concentration giving 50% growth inhibition. For the compound `COc1ccc(-c2nn(-c3cccc(NC(=O)c4ccc(N5CCOCC5)c(C(F)(F)F)c4)c3)cc2-c2ccncc2)cc1Cl`, the GI50 was greater than 50 µM and the concentration for total growth inhibition (TGI) is greater than 50 µM. Consider `Cc1cc(N(CCC#N)CCC#N)ccc1C=Nc1ccc(C(=O)NN2C(=O)/C(=C/c3ccc(N(CCC#N)CCC#N)cc3)N=C2c2cc([N+](=O)[O-])ccc2Cl)cc1`, for which the TGI was greater than 100 µM. For the compound `Cc1ccc(-c2nc(N3CCCNCC3)c3oc(-c4ccc(C)cc4)nc3n2)cc1`, the GI50 was 1.69 µM and the concentration for total growth inhibition (TGI) worked out at 3.06 µM. With `OCCN1CCN(CC/C=C2\c3ccccc3Sc3ccc(Cl)cc32)CC1`, the GI50 is 10.3 µM and 6.46 µM; the TGI is 25.8 µM and 19.2 µM. In turn, `N#Cc1c(N2CCOCC2)[nH]c(=O)c(C(c2c(Cl)cccc2Cl)c2c(O)c(C#N)c(N3CCOCC3)[nH]c2=O)c1O` returned a concentration for total growth inhibition (TGI) greater than 100 µM. `O=S(=O)(NCCNc1nccc(-c2c(-c3ccc(F)cc3)nc3sccn23)n1)c1ccccc1`: the GI50 is 14.3 µM and the TGI was greater than 100 µM. For `N#Cc1cc(S(=O)(=O)Nc2nc3ccccc3s2)c(SCc2ccccc2)cc1Cl`, in that order: 20.6 µM and 45.6 µM. In the case of `CCOC(OC1=C(C#N)CCCC1)C(C)[Se]c1ccccc1` (stereo not given), the TGI was greater than 100 µM. On the same count and under the same terms, as for `CCCCCCC(/C=N/O)C(C)(O)CCC` (stereo not given), the figure is greater than 100 µM. In the case of `COc1cc2c3c(n(CCCN=[N+]=[N-])c(=O)c2cc1OC)-c1ccc(N(C)C)cc1C3=O`, the GI50 is greater than 100 µM and the TGI was greater than 100 µM. With `c1ccc2cc3c(cc2c1)nc1ccccn13`, the TGI was greater than 100 µM. The compound `CC(C)(C)OC(=O)N(CCCCNCc1ccc2ccccc2c1)CCCNCc1ccc2ccccc2c1` gave a TGI of 3.04 µM.

Take `CSc1cccc(NC(=O)OC2CCCCCCCCCCC2)c1`: the total growth inhibition concentration (TGI) is 77.2 µM. `COc1cc2c(c(OC3OC(CO)C(O)C(O)C3O)c1)C(=O)CC(c1ccc(O)cc1)O2` (stereo not given) registered a total growth inhibition concentration (TGI) greater than 100 µM.

In the case of `Oc1ccc(Cl)cc1CNc1nc2ccccc2[nH]1`, the GI50 is 15.8 µM and the total growth inhibition concentration (TGI) came to 41.2 µM. `NC(=O)c1cccc([C@@H]2O[C@H](CO)[C@@H](O)[C@H]2O)c1` displayed a total growth inhibition concentration (TGI) of 65 µM.

The record behind these values is PubChem BioAssay (NCI).
